From the supplement of paper PMC4967469
The IC50 comes from the fitted curve, where viability falls to half of the control; a fit beyond the top or the lowest dose is shown as a bound at that dose. AUC is the area under the same curve over the 256-fold range up to the top dose, as a fraction; it is 1 without any effect and falls as sensitivity rises. For part of these data: Any top dose called inferred was derived from the fitted curves, not read from the paper. For part of these data: An entry number marks a drug with two screens in the source, which often give different values.

Legend:
Test in all cases: Viability of human cancer cell lines after 72 h of drug (GDSC screen)
[1] = compound: Cc1sc2c(c1C)C(c1ccc(Cl)cc1)=N[C@@H](CC(=O)OC(C)(C)C)c1nnc(C)n1-2 [JQ1]
Experimental: (§1)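 Human cancer cell lines in 384-well plates, medium with 10% serum, drug for 72 h over a 256-fold dose range (nine 2-fold or five 4-fold steps up to the top dose). Adherent lines were fixed and stained with the nucleic acid dye Syto60, suspension lines read with resazurin; signal relative to control wells, capped at 0 and 100%. One two-parameter sigmoid per drug and line, fitted in a mixed model over all curves with the slope shared within a line.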

[2] = compound: CC1(C)CNc2cc(NC(=O)c3cccnc3NCc3ccncc3)ccc21 [AMG-706]; conditions: top dose 2 µM; top dose inferred
Experimental: as §1

[3] = compound: c1ccc2c(CCNc3ccc(Nc4ccncc4)cc3)c[nH]c2c1 [JNJ-26854165]; conditions: top dose 10 µM
Experimental: as §1

[4] = compound: CC(=O)O[C@@]12CO[C@@H]1C[C@H](O)[C@@]1(C)C(=O)[C@H](O)C3=C(C)[C@@H](OC(=O)[C@H](O)[C@@H](NC(=O)OC(C)(C)C)c4ccccc4)C[C@@](O)([C@@H](OC(=O)c4ccccc4)[C@H]21)C3(C)C [Docetaxel]; conditions: top dose 0.0125 µM
Experimental: as §1

[5] = compound: CN1CCN(c2ccc([N+](=O)[O-])c3no[n+]([O-])c23)CC1 [NSC-207895]; conditions: top dose 20 µM; top dose inferred
Experimental: as §1

[6] = compound: O=C(/C=C/c1cccc(S(=O)(=O)Nc2ccccc2)c1)NO [Belinostat]; conditions: top dose 20 µM; top dose inferred
Experimental: as §1

[7] = compound: C[C@]1(O)C[C@@H](c2nc(-c3ccc4ccc(-c5ccccc5)nc4c3)c3c(N)nccn32)C1 [OSI-906]; conditions: top dose 2.56 µM; top dose inferred
Experimental: as §1

[8] = compound: Cc1ccc(C(=O)N(CCCN)[C@@H](c2nc3cc(Cl)ccc3c(=O)n2Cc2ccccc2)C(C)C)cc1 [SB-715992]; conditions: top dose 0.128 µM; top dose inferred
Experimental: as §1

[9] = compound: COC(=O)[C@H](CCSC)NC(=O)c1ccc(NC[C@@H](N)CS)cc1-c1ccccc1 [FTI-277]; conditions: top dose 1.024 µM; top dose inferred
Experimental: as §1

[10] = compound: CCOc1nc(NC(=O)Cc2cc(OC)ccc2OC)cc(N)c1C#N [JNK Inhibitor VIII]; conditions: top dose 10 µM; top dose inferred
Experimental: as §1

[11] = compound: COCC[n+]1c2c(n(Cc3cnccn3)c1C)C(=O)c1ccccc1C2=O [YM155]; conditions: top dose 5.12 µM
Experimental: as §1

[12] = top dose 1 µM, screen: GDSC drug entry 1218, top dose inferred
[13] = top dose 2.56 µM, screen: GDSC drug entry 163

Row | Cell Line | AUC [1, 12] | IC50 [1, 12] | AUC [1, 13] | IC50 [1, 13] | AUC [2] | IC50 [2] | AUC [3] | IC50 [3] | AUC [4] | IC50 [4] | AUC [5] | IC50 [5] | AUC [6] | IC50 [6] | AUC [7] | IC50 [7] | AUC [8] | IC50 [8] | AUC [9] | IC50 [9] | AUC [10] | IC50 [10] | AUC [11] | IC50 [11]
1 | JHH-4 (liver, adherent) | 0.975 | > 1 µM | 0.851 | 1.94 µM | 0.97 | > 2 µM | 0.887 | > 10 µM | 0.958 | > 0.0125 µM | 0.919 | > 20 µM | 0.289 | 0.319 µM | 0.96 | > 2.56 µM | 0.985 | > 0.128 µM | 0.981 | > 1.02 µM | 0.984 | > 10 µM | 0.674 | 0.974 µM
2 | JHU-011 (head and neck, adherent) | 0.984 | > 1 µM | 0.639 | 0.385 µM | 0.97 | > 2 µM | 0.835 | 6.41 µM | 0.364 | 0.000331 µM | 0.881 | > 20 µM | 0.341 | 0.456 µM | 0.844 | 1.78 µM | 0.634 | 0.0186 µM | 0.936 | > 1.02 µM | 0.947 | > 10 µM | 0.024 | < 0.02 µM
3 | JHU-022 (head and neck, adherent) | 0.951 | > 1 µM | 0.953 | > 2.56 µM | 0.955 | > 2 µM | 0.852 | > 10 µM | 0.63 | 0.00196 µM | 0.982 | > 20 µM | 0.699 | 5.33 µM | 0.922 | > 2.56 µM | 0.955 | > 0.128 µM | 0.973 | > 1.02 µM | 0.924 | > 10 µM | 0.513 | 0.35 µM
4 | JIMT-1 (breast, adherent) | 0.967 | > 1 µM | 0.798 | 1.32 µM | 0.977 | > 2 µM | 0.866 | > 10 µM | 0.529 | 0.000941 µM | 0.962 | > 20 µM | 0.638 | 3.1 µM | 0.977 | > 2.56 µM | 0.841 | 0.0996 µM | 0.94 | > 1.02 µM | 0.962 | > 10 µM | 0.118 | < 0.02 µM
5 | K2 (melanoma, adherent) | 0.974 | > 1 µM | 0.84 | > 2.56 µM | 0.982 | > 2 µM | 0.904 | > 10 µM | 0.92 | > 0.0125 µM | 0.971 | > 20 µM | 0.712 | 6 µM | 0.95 | > 2.56 µM | 0.949 | > 0.128 µM | 0.975 | > 1.02 µM | 0.982 | > 10 µM | 0.143 | < 0.02 µM
6 | KMH-2 (thyroid, adherent) | 0.983 | > 1 µM | 0.521 | 0.181 µM | 0.99 | > 2 µM | 0.922 | > 10 µM | 0.58 | 0.00126 µM | 0.942 | > 20 µM | 0.806 | 8.87 µM | 0.83 | 1.38 µM | 0.755 | 0.0391 µM | 0.968 | > 1.02 µM | 0.984 | > 10 µM | 0.542 | 0.412 µM
7 | KMRC-1 (kidney, adherent) | 0.982 | > 1 µM | 0.755 | 0.915 µM | 0.987 | > 2 µM | 0.858 | 9.01 µM | 0.957 | > 0.0125 µM | 0.908 | > 20 µM | 0.468 | 1.02 µM | 0.979 | > 2.56 µM | 0.987 | > 0.128 µM | 0.927 | > 1.02 µM | 0.978 | > 10 µM | 0.074 | < 0.02 µM
8 | KON (head and neck, adherent) | 0.982 | > 1 µM | 0.728 | 0.701 µM | 0.951 | > 2 µM | 0.77 | 3.73 µM | 0.415 | 0.000459 µM | 0.986 | > 20 µM | 0.826 | 11.8 µM | 0.848 | 1.85 µM | 0.983 | > 0.128 µM | 0.7 | 0.23 µM | 0.957 | > 10 µM | 0.412 | 0.185 µM
9 | KP-3 (pancreas, adherent) | 0.942 | > 1 µM | 0.821 | 1.87 µM | 0.924 | > 2 µM | 0.942 | > 10 µM | 0.881 | > 0.0125 µM | 0.946 | > 20 µM | 0.58 | 2.16 µM | 0.859 | > 2.56 µM | 0.752 | 0.0498 µM | 0.979 | > 1.02 µM | 0.909 | > 10 µM | 0.313 | 0.0857 µM
10 | KYM-1 (rhabdomyosarcoma, adherent) | 0.952 | > 1 µM | 0.692 | 0.503 µM | 0.987 | > 2 µM | 0.824 | 4.83 µM | 0.622 | 0.00161 µM | 0.591 | 2.13 µM | 0.509 | 1.32 µM | 0.99 | > 2.56 µM | 0.923 | > 0.128 µM | 0.988 | > 1.02 µM | 0.987 | > 10 µM | 0.018 | < 0.02 µM
11 | KYSE-50 (oesophagus, adherent) | 0.989 | > 1 µM | 0.39 | 0.0821 µM | 0.981 | > 2 µM | 0.863 | 7.45 µM | 0.684 | 0.00243 µM | 0.881 | 17.8 µM | 0.397 | 0.668 µM | 0.702 | 0.557 µM | 0.791 | 0.0523 µM | 0.981 | > 1.02 µM | 0.99 | > 10 µM | 0.064 | < 0.02 µM
